Measurements as given in the supplement of paper PMC7125110.
± gives the standard error. Variants at the background level are over-represented here.

B1: glmS ribozyme (parent)
chain: AUAAAAGCGCCAGAACUACAGAAAUGUAGUUGACGAGGAGGAGGUUUAUCGAAUUUUCGGCGGAUGCCUCCAAA

Columns and labels:
Settings in all cases: with glucosamine-6-phosphate
glucosamine-6-phosphate [1] = variants of: B1; test: self-cleavage kobs at 40 uM GlcN6P; higher = faster cleavage; RNA array
Outline: (§1)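 kcat and KM were obtained from weighted Michaelis–Menten fits across concentrations of kobs values. Those came from one- or two-exponential decay fits to per-tile medians normalised to baseline and to non-cleaving reference variants. The variants were barcoded ribozymes transcribed in situ by E. coli RNA polymerase on sequenced MiSeq chips and tracked through a hybridised Cy3 probe at 37 °C, with 40 μM to 10 mM glucosamine-6-phosphate in HEPES/KCl/Mg(OAc)2 buffer flowed in.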

glucosamine-6-phosphate [2] = variants of: B1; test: self-cleavage kobs at 10000 uM GlcN6P; higher = faster cleavage; RNA array
Outline: as §1

glucosamine-6-phosphate [3] = variants of: B1; test: self-cleavage kobs at 640 uM GlcN6P; higher = faster cleavage; RNA array
Outline: as §1

glucosamine-6-phosphate [4] = variants of: B1; test: self-cleavage kobs at 2500 uM GlcN6P; higher = faster cleavage; RNA array
Outline: as §1

glucosamine-6-phosphate [5] = variants of: B1; test: self-cleavage kobs at 160 uM GlcN6P; higher = faster cleavage; RNA array
Outline: as §1

Variant	self-cleavage kobs at 40 uM GlcN6P (glucosamine-6-phosphate [1]) [s⁻¹]	self-cleavage kobs at 10000 uM GlcN6P (glucosamine-6-phosphate [2]) [s⁻¹]	self-cleavage kobs at 640 uM GlcN6P (glucosamine-6-phosphate [3]) [s⁻¹]	self-cleavage kobs at 2500 uM GlcN6P (glucosamine-6-phosphate [4]) [s⁻¹]	self-cleavage kobs at 160 uM GlcN6P (glucosamine-6-phosphate [5]) [s⁻¹]
G40C U57A G62A	< 1e-05	< 1e-05			
G40U U45G A48U G62U	< 1e-05	< 1e-05			
A39G C61A	< 1e-05	< 1e-05	< 1e-05	< 1e-05	
G40A U47C G62A A64C C70U	< 1e-05	< 1e-05		< 1e-05	
A39U A42G U56G A64C	< 1e-05	4.69e-05 ± 1.8e-05			
G43A A64G	< 1e-05	4.35e-05 ± 1.7e-05			< 1e-05
A42C G44A C68U	< 1e-05	< 1e-05			
A42C A48G	< 1e-05	< 1e-05	< 1e-05	< 1e-05	< 1e-05
A39C A52U C71U	< 1e-05				
G40A C58G	< 1e-05		< 1e-05		< 1e-05
G40C G44C U55A C61A	< 1e-05			< 1e-05	< 1e-05
G41C C61A	< 1e-05	< 1e-05	< 1e-05	< 1e-05	< 1e-05
A39C U57A C68G	< 1e-05	< 1e-05	< 1e-05	< 1e-05	
G41U A42C	< 1e-05				< 1e-05
G41C G44U	< 1e-05	< 1e-05	< 1e-05	< 1e-05	< 1e-05
G40A A42G	0.000182 ± 2.4e-05	0.00783 ± 0.0018	0.00157 ± 0.00024	0.00363 ± 0.00075	0.00046 ± 9.7e-05
G40U C58U	< 1e-05				
A42G A52U A53U U56A	< 1e-05				
A39G C50G C58A	0.000142 ± 4.6e-05				
G41A G44A	< 1e-05	< 1e-05		< 1e-05	< 1e-05
G40A G41C C61G	< 1e-05		< 1e-05		
G41U A42U C50G	< 1e-05		< 1e-05		
A39C U46C	3.41e-05 ± 9.8e-06	0.00206 ± 0.00025	0.000488 ± 6.6e-05	0.00122 ± 0.00023	0.000168 ± 3.9e-05

Variant	self-cleavage kobs at 40 uM GlcN6P (glucosamine-6-phosphate [1]) [s⁻¹]	self-cleavage kobs at 10000 uM GlcN6P (glucosamine-6-phosphate [2]) [s⁻¹]	self-cleavage kobs at 640 uM GlcN6P (glucosamine-6-phosphate [3]) [s⁻¹]	self-cleavage kobs at 2500 uM GlcN6P (glucosamine-6-phosphate [4]) [s⁻¹]	self-cleavage kobs at 160 uM GlcN6P (glucosamine-6-phosphate [5]) [s⁻¹]
G40U G62A	< 1e-05	< 1e-05	< 1e-05	< 1e-05	< 1e-05
A42G U46G G59A	< 1e-05			< 1e-05	
A42C C70A	< 1e-05	< 1e-05	< 1e-05	< 1e-05	< 1e-05
G41U C70A	0.00288 ± 0.00022		0.0189 ± 0.0026		0.00721 ± 0.0009
G41U G62A G63U	< 1e-05	< 1e-05			
G41A G59C	< 1e-05	< 1e-05	< 1e-05	< 1e-05	< 1e-05
G41C G43U C70A	< 1e-05			< 1e-05	
A42U C58A	< 1e-05		< 1e-05		< 1e-05
G41U G59C	< 1e-05	< 1e-05	< 1e-05	< 1e-05	< 1e-05
G41U C50A G59A	< 1e-05	< 1e-05			
G40A G62U	< 1e-05	< 1e-05	< 1e-05		< 1e-05
G41A C67G	< 1e-05				< 1e-05
A42U G43A	< 1e-05	< 1e-05	< 1e-05	< 1e-05	< 1e-05
G40C G60U	< 1e-05	< 1e-05	< 1e-05		< 1e-05
A42G A53C	0.000286 ± 5.1e-05	0.0076 ± 0.0015	0.00271 ± 0.00065	0.0112 ± 0.0032	0.000666 ± 0.00018
A39U U47A G51U C67U	< 1e-05				
A39C G40C C70G	< 1e-05	< 1e-05	< 1e-05		
A42U A48G G60A	< 1e-05			< 1e-05	
G41A A53G U55C C68A	< 1e-05				
G41A G62U U65G	< 1e-05	< 1e-05			
A42G C61U	< 1e-05		< 1e-05		< 1e-05
A42C C61G	< 1e-05		< 1e-05	< 1e-05	< 1e-05
G41U C58G	< 1e-05	< 1e-05	< 1e-05	< 1e-05	< 1e-05

Variant	self-cleavage kobs at 40 uM GlcN6P (glucosamine-6-phosphate [1]) [s⁻¹]	self-cleavage kobs at 10000 uM GlcN6P (glucosamine-6-phosphate [2]) [s⁻¹]	self-cleavage kobs at 640 uM GlcN6P (glucosamine-6-phosphate [3]) [s⁻¹]	self-cleavage kobs at 2500 uM GlcN6P (glucosamine-6-phosphate [4]) [s⁻¹]	self-cleavage kobs at 160 uM GlcN6P (glucosamine-6-phosphate [5]) [s⁻¹]
A42C G43C	< 1e-05		< 1e-05	< 1e-05	< 1e-05
G40A A64U	< 1e-05		< 1e-05		< 1e-05
G41U G62C	< 1e-05	< 1e-05	< 1e-05	< 1e-05	< 1e-05
G41A A48G G63C C70G	< 1e-05				
G41A G43U C68U	< 1e-05				
A39C U49C U55G C71U	< 1e-05	< 1e-05		< 1e-05	
G40A C61A	< 1e-05		< 1e-05		< 1e-05
G41C C68G	< 1e-05		< 1e-05		< 1e-05
G41C C68A	< 1e-05	< 1e-05	< 1e-05	< 1e-05	< 1e-05
A39G G59C	< 1e-05		< 1e-05	< 1e-05	
A42G U47G	0.000293 ± 6.2e-05				
A42G U47A	0.000848 ± 0.00018	0.00752 ± 0.0028	0.00967 ± 0.0013	0.0269 ± 0.0085	0.00279 ± 0.0011
G41U A48G	< 1e-05		< 1e-05		< 1e-05
G41U A48C	< 1e-05		< 1e-05		< 1e-05
A42G A48G	< 1e-05	3.86e-05 ± 1.7e-05			
G40U U49G G63C	< 1e-05				
A42U G63C C70A	< 1e-05		< 1e-05		
A39C A42U U46G	< 1e-05				
A42G C70A	4.72e-05 ± 8.8e-06		0.000154 ± 1.6e-05	0.000325 ± 3.7e-05	6.35e-05 ± 1.1e-05
G40U C61A G63C	< 1e-05			< 1e-05	< 1e-05
A39U G41U C67G	< 1e-05				
A39U G59C	< 1e-05	< 1e-05	< 1e-05	< 1e-05	< 1e-05
G40A U57A	< 1e-05	2.63e-05 ± 9.5e-06		3.99e-05 ± 1.3e-05	< 1e-05

Variant	self-cleavage kobs at 40 uM GlcN6P (glucosamine-6-phosphate [1]) [s⁻¹]	self-cleavage kobs at 10000 uM GlcN6P (glucosamine-6-phosphate [2]) [s⁻¹]	self-cleavage kobs at 640 uM GlcN6P (glucosamine-6-phosphate [3]) [s⁻¹]	self-cleavage kobs at 2500 uM GlcN6P (glucosamine-6-phosphate [4]) [s⁻¹]	self-cleavage kobs at 160 uM GlcN6P (glucosamine-6-phosphate [5]) [s⁻¹]
G40U U69A	< 1e-05				
A39C U49C	< 1e-05				
A39G U55C	0.00123 ± 0.00015	0.0709 ± 0.018	0.0122 ± 0.0029		0.00406 ± 0.0011
G40A C58U C70A	< 1e-05				
A42G U46G	0.000254 ± 6.6e-05	0.0115 ± 0.0033	0.00167 ± 0.00038	0.0074 ± 0.0015	0.000694 ± 0.00017
A39C G51C	< 1e-05	< 1e-05			< 1e-05
A42G A64G	0.000694 ± 0.00014				
G41A A42C A52G	< 1e-05				
G40C G43A	< 1e-05	< 1e-05			
G43A C50U	< 1e-05		< 1e-05	< 1e-05	< 1e-05
G41U C61U	< 1e-05	< 1e-05	< 1e-05	< 1e-05	< 1e-05
G40U U56G G62C C67G	< 1e-05				
A42C C68A	< 1e-05	< 1e-05	< 1e-05	< 1e-05	< 1e-05
G41A U46A	3.02e-05 ± 1.4e-05		0.000168 ± 4.6e-05	0.000531 ± 7.8e-05	4.5e-05 ± 1.2e-05
A42G U49C	< 1e-05	< 1e-05	< 1e-05	< 1e-05	< 1e-05
G41A U69A	< 1e-05		< 1e-05		
A39U U55A	0.000396 ± 9.4e-05	0.0376 ± 0.0091	0.00564 ± 0.001	0.0142 ± 0.0033	0.00146 ± 0.00024
A42G A52G U65G	< 1e-05	0.000346 ± 8.1e-05		8.47e-05 ± 2.8e-05	
A39G U47G	0.000644 ± 0.0001		0.00207 ± 0.00049	0.0155 ± 0.0035	
G41A C50A G51U	< 1e-05				< 1e-05
